From the supplement of paper PMC12067230
The data scatter; read single values as rough.

assay: amyloid nucleation score relative to library mode (yeast Sup35 reporter selection) (log enrichment difference); higher = more amyloid nucleation; sequences are the first 22 residues of the Bri2 peptide extended by up to 12 random residues; settings: random library (experiment): 1;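 active = nucleation score significantly above 0 at FDR 0.05; inactive = not significantly above 0 or absent from output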
Protocol: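 Random C-terminal extensions of the 22-aa Bri2 peptide by 12 NNK codons; premature stops give shorter extensions. Peptides were fused to the Sup35 nucleation domain in S. cerevisiae [psi-pin-] and selected on -ADE-URA plates for 7 d at 30 °C. The nucleation score is log(output/input), centred to the mode of each of 3 independent libraries (1 input, 3 technical output replicates), with duplicates merged. Sequences absent from the output ('random_non_nuc') were imputed with the library mode value, so they are given as censored (<). Nucleators are scores significantly >0 at FDR 0.05.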
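Further: [psi-pin-] Saccharomyces cerevisiae expressing SupN fusions, induced by 100 µM Cu2SO4, selected 7 d at 30 °C without adenine and uracil, scored by deep sequencing of output versus input.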

Sequence | amyloid nucleation score
EASNCFAIRHFENKFAVETLICWTGYW | 4.69
EASNCFAIRHFENKFAVETLICVLR | inactive
EASNCFAIRHFENKFAVETLICRSKSFHVEGERK | inactive
EASNCFAIRHFENKFAVETLICGMSKGSVGRVAS | -0.129
EASNCFAIRHFENKFAVETLICPRSTALTCFMVW | inactive
EASNCFAIRHFENKFAVETLICWMQRMA | 6
EASNCFAIRHFENKFAVETLICNDGDNGHFVRLL | 0.262
EASNCFAIRHFENKFAVETLICRVSSNEKTCMGR | inactive
EASNCFAIRHFENKFAVETLICLLPLAKVEERAS | 2.97
EASNCFAIRHFENKFAVETLICWSCRIRSGNLWW | inactive
EASNCFAIRHFENKFAVETLICKVHC | -0.0935
EASNCFAIRHFENKFAVETLICVSNYFRYIRWYM | inactive
EASNCFAIRHFENKFAVETLICNGGASGRDFVDV | inactive
EASNCFAIRHFENKFAVETLICLCFSKPWRKGVR | 2.67
EASNCFAIRHFENKFAVETLICYTEQWCLSCWST | 5.86
EASNCFAIRHFENKFAVETLICRLVRKISGIIHM | inactive
EASNCFAIRHFENKFAVETLICTQKL | inactive
EASNCFAIRHFENKFAVETLICLSCLGA | 8.71
EASNCFAIRHFENKFAVETLICDLVRLSRGGVGT | inactive
EASNCFAIRHFENKFAVETLICGDLFGRLAAEKL | inactive

same assay, conditions: random library (experiment): 2

Sequence | amyloid nucleation score
EASNCFAIRHFENKFAVETLICCAICTQTGCRSA | 8.56
EASNCFAIRHFENKFAVETLICYSL | 4.55
EASNCFAIRHFENKFAVETLICPDVAVRSCVALG | inactive
EASNCFAIRHFENKFAVETLICVNKKHNRAGMKR | inactive
EASNCFAIRHFENKFAVETLICCLVSIIGWSSVL | inactive
EASNCFAIRHFENKFAVETLICNQGVTYNYCCCR | 8.53
EASNCFAIRHFENKFAVETLICYFSSCSYGVAAC | inactive
EASNCFAIRHFENKFAVETLICCCGIFNHYEMVG | 7.87
EASNCFAIRHFENKFAVETLICVCSVGAGREPCG | 3.9
EASNCFAIRHFENKFAVETLICLSVT | inactive
EASNCFAIRHFENKFAVETLICANCSFCWVVVGI | 5.8
EASNCFAIRHFENKFAVETLICCNNGCICMPTLL | 9
EASNCFAIRHFENKFAVETLICRVNEAFGDGRP | inactive
EASNCFAIRHFENKFAVETLICCFSNWSVLTETE | 8.66
EASNCFAIRHFENKFAVETLICNTKPVYVVINRK | 8.22
EASNCFAIRHFENKFAVETLICLVLITCH | 4.99

same assay, conditions: random library (experiment): 3

Sequence | amyloid nucleation score
EASNCFAIRHFENKFAVETLICLACAQLWACL | inactive
EASNCFAIRHFENKFAVETLICKWLACHWYWSAR | inactive
EASNCFAIRHFENKFAVETLICMLVFVSKFDSRC | inactive
EASNCFAIRHFENKFAVETLICGHEG | inactive
EASNCFAIRHFENKFAVETLICTVGMLREDRPRA | inactive
EASNCFAIRHFENKFAVETLICGRRVQLPSWGVG | inactive
EASNCFAIRHFENKFAVETLICLSARAVGCPYEG | inactive
EASNCFAIRHFENKFAVETLICLVSLMYFGFYMV | inactive
EASNCFAIRHFENKFAVETLICAADACIMNCWIE | 6.4
EASNCFAIRHFENKFAVETLICVSVRSGVNGSAS | inactive
EASNCFAIRHFENKFAVETLICVLGVSRSSAPHP | inactive
EASNCFAIRHFENKFAVETLICIGYCNRSYWLLE | 2.24
